From patent publication US20250295802A1, “HER3 ANTIBODY-DRUG CONJUGATE AND USE THEREOF” (DUALITY BIOLOGICS (SUZHOU) CO., LTD., priority 2022, published 2025)

B1: Clone 2: humanized 3F8; heavy chain SEQ ID NO: 13, light chain SEQ ID NO: 12 (antibody)
heavy: QVQLQESGPGLVKPSETLSLTCTVSGYSITSAYYWNWIRQPFGKGLEWMGYISYDGRNNFNPSLKNRVTISRDTSKNQFSLKLSSVTAADTAVYYCARDGDYDYFDYWGQGTTVTVSS[human IgG1 constant region left out]
light: DIQMTQSPSSLSASVGDRVTITCRASQDISNYLNWYQQKPGKAPKLLIYYTSILHSGVPSRFSGSGSGTDYTFTISSLQPEDIATYFCQQGDTLPPTFGGGTKLEIKRTVAAPSVFIFPPSDEQLKSGTASVVCLLNNFYPREAKVQWKVDNALQSGNSQESVTEQDSKDSTYSLSSTLTLSKADYEKHKVYACEVTHQGLSSPVTKSFNRGEC
B2: Clone 3: humanized 3F8; heavy chain SEQ ID NO: 14, light chain SEQ ID NO: 12 (antibody)
heavy: B1 heavy with T69S, V93T
light: B1 light

Experiments:
HER3 [1] = molecular target: T1, HER3 (Homo sapiens, UniProt P21860); assay: ELISA binding affinity after incubation at pH 3.5 (acid stress)
T1 construct: human Fc (huFc)
Method: (§1) ELISA assay: human HER2-ex-huFc, human HER3-huFc, and human EGFR-his were diluted to 2 μg/mL and 50 μL/well in a 96-well plate and incubated at 4° C. overnight. The plate was washed with 0.5×PBST, then incubated with 100 μL of a blocking buffer (PBS+3% BSA) at 37° C. for 2 h, and washed with 0.5×PBST. The 3F8 antibody was diluted with the blocking buffer in a 1:3 serial gradient, added at 50 μL/well, incubated at 37° C. for 40-50 min, and then washed with 0.5×PBST. Goat anti-mouse IgG-HRP (Southern Biotech, 1030-05) was diluted at 1:20000 with the blocking buffer, added at 50 μL/well, incubated in the dark for 30 min, and then washed with 0.5×PBST. Prior to assay, 50 μL of luminol buffer A+B was added to each well in a 1:1 mix.
(§2) Antibody stability test: the purified antibody at 5 mg/mL was stored at 4° C. as regular practice, incubated at 40° C. for 7 days and 14 days for heat stability evaluation, transferred to a glycine solution at pH 3.5 for regeneration, and stored for 2, 4 and 6 h for acid stability evaluation, or subjected to repeated freeze-thaw treatments for 4 or 6 cycles for freeze-thaw stability evaluation. Aggregation was measured by SEC-HPLC, and binding affinity was determined by ELISA.
Three clones of hu3F8 were incubated at pH 3.5 for 0, 2, 4 and 6 h, and then subjected to ELISA to measure the binding affinities.
EC50 assay of the three clones of hu3F8 after 0, 2, 4, and 6 h of incubation at pH 3.5. EC50 was determined by ELISA.

HER3 [2] = molecular target: T1, HER3; assay: ELISA binding affinity after repeated freeze-thaw
Method: as §1, §2
Three clones of hu3F8 were freeze-thawed for 3 or 5 cycles, and then subjected to ELISA to measure the binding affinities. The chimeric antibody was subjected to parallel assay.

His-HER3 = molecular target: T2, His-HER3 (Homo sapiens, UniProt P21860); assay: Binding kinetics by Biacore (SPR); conditions: antibody as ligand, analyte His-HER3, Biacore T200
T2 construct: His
Method: Affinity assay by surface plasmon resonance (SPR): antibody kinetics and affinity were determined using Biacore T200. Briefly, the recombinant human HER3 antibody was immobilized on a protein A chip (GE, Cat. 29-1275-5). The antigen concentration, from 50 nM to a final concentration of 0.78125 nM, was generated by 2-fold serial dilution, and affinity and kinetics were determined through the chip.
The binding affinity of humanized 3F8 (hu3F8) and chimeric 3F8. Binding kinetics of 3 humanized 3F8 clones and chimeric 3F8 were determined by Biacore. Three humanized 3F8 clones (clone 1, clone 2 and clone 3) had different heavy chains and one identical light chain. Clone 1, clone 2, and clone 3 corresponded to hu3F8-1, hu3F8-2, and hu3F8-3, respectively.
All data listed in Table 6 were processed using Biacore T200 evaluation software version 3.1.

[3] = Aggregation by SEC-HPLC after stress test; assay type: physicochemical
Method: as §2
Aggregations of 3 clones of hu3F8 after stability test and their aggregation evaluations on storage at 4° C. Aggregations of the three hu3F8 antibodies after acid treatment, repeated freeze-thaw and incubation at 40° C. were determined by SEC-HPLC and compared to each of the antibodies stored at 4° C. All the clones retained more than 95% of monomer after stress test, indicating little tendency to aggregate.

HER3 [4] = molecular target: T1, HER3; assay: ELISA binding affinity after incubation at 40° C. (heat stress)
Method: as §1, §2
The three clones of hu3F8 were incubated at 40° C. for different times and then subjected to ELISA to determine the binding affinities. The chimeric antibody was subjected to parallel assay.
EC50 assay of the three clones of hu3F8 incubated at 40° C. for different times. The three humanized 3F8 antibody clones were incubated in normal saline at 40° C. for 7 or 14 days, and the binding affinities after heat stress test were determined by ELISA. The chimeric antibody 3F8 was subjected to parallel assay.

[5] = Antibody stored at 4° C., SEC-HPLC

Molecule	EC50 after incubation at pH 3.5 (HER3 [1]; incubation time 0 hr) [ng/mL]	EC50 after incubation at pH 3.5 (HER3 [1]; incubation time 2 hr) [ng/mL]	EC50 after incubation at pH 3.5 (HER3 [1]; incubation time 4 hr) [ng/mL]	EC50 after incubation at pH 3.5 (HER3 [1]; incubation time 6 hr) [ng/mL]	EC50 after freeze-thaw stress (HER3 [2]; 0 freeze-thaw cycles) [µg/mL]	EC50 after freeze-thaw stress (HER3 [2]; 3 freeze-thaw cycles) [µg/mL]	EC50 after freeze-thaw stress (HER3 [2]; 5 freeze-thaw cycles) [µg/mL]	ka (His-HER3) [M⁻¹ s⁻¹]	kd (His-HER3) [s⁻¹]	Dimer [3, 5] [%]	Monomer [3, 5] [%]	Dimer ([3]; Day 7 at 40° C.) [%]	Monomer ([3]; Day 7 at 40° C.) [%]	Dimer ([3]; Day 14 at 40° C.) [%]	Monomer ([3]; Day 14 at 40° C.) [%]	Dimer ([3]; Freeze-thaw for 3 cycles) [%]	Monomer ([3]; Freeze-thaw for 3 cycles) [%]	Tetramer ([3]; Freeze-thaw for 3 cycles) [%]	Dimer ([3]; Freeze-thaw for 5 cycles) [%]	Monomer ([3]; Freeze-thaw for 5 cycles) [%]	other results
B1	45.04	48.31	44.54	41.18	0.04246	0.04666	0.04379	666000	0.000328	3.16	96.67	3.03	96.94	3.39	96.44	3.22	96.65	0.13	3.44	96.31	Tetramer [3, 5]: 0.17%; Tetramer ([3]; Day 7 at 40° C.): 0.03%; Tetramer ([3]; Day 14 at 40° C.): 0.17%; Tetramer ([3]; Freeze-thaw for 5 cycles): 0.25%; Dimer ([3]; pH 3.5 for 2 h): 2.99%; Monomer ([3]; pH 3.5 for 2 h): 96.98%; Tetramer ([3]; pH 3.5 for 2 h): 0.04%; Dimer ([3]; pH 3.5 for 4 h): 3.27%; Monomer ([3]; pH 3.5 for 4 h): 96.52%; Tetramer ([3]; pH 3.5 for 4 h): 0.22%; Dimer ([3]; pH 3.5 for 6 h): 3.27%; Monomer ([3]; pH 3.5 for 6 h): 96.57%; Tetramer ([3]; pH 3.5 for 6 h): 0.16%; EC50 after incubation at 40° C. (HER3 [4]; day 0): 0.0454 µg/mL; EC50 after incubation at 40° C. (HER3 [4]; day 7): 0.04809 µg/mL; EC50 after incubation at 40° C. (HER3 [4]; day 14): 0.05203 µg/mL
B2	38.71	41.71	39.45	38.06	0.04225	0.03742	0.03363	644000	0.000348	2.90	97.10	2.91	97.09	2.96	97.04	2.90	96.97	0.13	2.87	97.01	Tetramer ([3]; Freeze-thaw for 5 cycles): 0.12%; Dimer ([3]; pH 3.5 for 2 h): 2.96%; Monomer ([3]; pH 3.5 for 2 h): 97.04%; Dimer ([3]; pH 3.5 for 4 h): 2.87%; Monomer ([3]; pH 3.5 for 4 h): 97.13%; Dimer ([3]; pH 3.5 for 6 h): 2.94%; Monomer ([3]; pH 3.5 for 6 h): 97.06%; EC50 after incubation at 40° C. (HER3 [4]; day 0): 0.04244 µg/mL; EC50 after incubation at 40° C. (HER3 [4]; day 7): 0.04696 µg/mL; EC50 after incubation at 40° C. (HER3 [4]; day 14): 0.04125 µg/mL

Changes are numbered by the printed parent chain.
